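Assay format: 96-well plates, 48-hour exposure. GI50 marks 50% less growth. TGI: concentration producing complete growth inhibition.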 Numbered stars: 1 amine (or outer) side, 2 acyl side, 3 side chain; on linkers, the order of the positions; unused ones are H or OH. Bridge positions count the residues as written; N and C are the ends. Square brackets hold non-standard residues; d marks the D form. Peptide text beside a SMILES is read from it. * marks the point of attachment. ξ: configuration not given here. Phe(3,5-F2) = N[C@@H](Cc1cc(F)cc(F)c1)C(=O)O; ξThr(3S) = C[C@H](O[*:3])C(N[*:1])C(=O)[*:2]; X19 = C[C@H]1OCCN([*:1])[C@@H]1C(=O)[*:2]; Phe(3-F) = N[C@@H](Cc1cccc(F)c1)C(=O)O; Pro(4R-Me) = C[C@H]1CN[C@H](C(=O)O)C1; aThr = C[C@H](O)[C@H](N)C(=O)O; X18 = O=S(=O)(F)Oc1ccc(N*)cc1; Pip = O=C(O)[C@@H]1CCCCN1; X7 = CCc1ccc(N*)c(F)c1; CO = O=C([*:1])[*:2]
Tested on: NCI-H322M lung
Assay: NCI tumour cell line growth inhibition, 48 h

Structure (SMILES) | GI50 [µM] | TGI [µM]
O=C(NNc1nc2cc(F)ccc2n2c(CN3CCC(O)C3)ccc12)c1cnccn1 (stereo not given) | 0.387 | > 100
C[C@@H]1C[C@H]2C(=O)O[C@@H](C)C(NC(=O)[C@H](Cc3cc(F)cc(F)c3)NC(=O)Nc3ccc(OS(=O)(=O)F)cc3)C(=O)N3CCC[C@H]3C(=O)N3CCO[C@H](C)[C@H]3C(=O)N[C@@H](CO)C(=O)N2C1 (stereo partly drawn) ({X18-CO}-[Phe(3,5-F2)][ξThr(3S)]P[X19]S[Pro(4R-Me)]; ester 2-C) | 5.41 | > 100
C/C(=N/NC(N)=S)c1ccc(Nc2nc(SCC(C)C)nc(-c3ccc(F)cc3)c2C#N)cc1 | 2.22 | 25.4
CCc1ccc(NC(=O)N[C@@H](Cc2cccc(F)c2)C(=O)N[C@@H]2C(=O)N3CCC[C@H]3C(=O)N3CCCC[C@H]3C(=O)N[C@@H](C)C(=O)N3C[C@H](C)C[C@H]3C(=O)O[C@H]2C)c(F)c1 ({X7-CO}-[Phe(3-F)][aThr]P[Pip]A[Pro(4R-Me)]; ester 2-C) | 0.744 | 45.5
COc1cc(OC)c(S(N)(=O)=O)cc1C(=O)/C=C/c1ccc(C)cc1 | 2.87 | 12

Reference: PubChem BioAssay (NCI)
